Laboratory results published in paper PMC7819943, “Rice protein-binding microarrays: a tool to detect cis-acting elements near promoter regions in rice”.
The other results are listed elsewhere or left out.

Each sequence was assayed against T1, OsWOX13 (Oryza sativa, UniProt Q5QMM3 1-267) (assay: protein-binding microarray (RPBM); PBS, 2% BSA, 51.3 ng/ul salmon testes DNA, 50 uM zinc acetate, 200 nM TF, 25 C, 1 h; high values mean tight binding). Conditions: protein: recombinant; tags: N-terminal polyhistidine and DsRed monomer fusion (pET32a); label: CyDye5-dUTP incorporated in the synthesized complementary strand; 3' TTTTT single-stranded linker to array surface; dsDNA, one strand shown.
T1 sequence: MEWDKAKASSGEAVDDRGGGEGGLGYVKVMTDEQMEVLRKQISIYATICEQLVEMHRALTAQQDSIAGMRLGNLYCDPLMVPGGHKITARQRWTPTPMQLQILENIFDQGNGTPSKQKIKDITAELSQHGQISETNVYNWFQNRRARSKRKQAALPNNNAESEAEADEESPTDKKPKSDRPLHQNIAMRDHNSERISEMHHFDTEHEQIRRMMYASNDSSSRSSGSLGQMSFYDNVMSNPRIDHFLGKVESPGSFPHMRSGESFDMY
In short: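 The binding signal is fluorescence intensity per array feature (arbitrary units). Readings came from an Axon 4000B scanner after a washed, 2% BSA-blocked, double-stranded custom Agilent array had been incubated for 1 h at 25 °C with 200 nM protein and 50 µM zinc acetate. The protein was a Ni–NTA-purified transcription factor fused N-terminally to polyhistidine and DsRed, expressed in E. coli BL21-CodonPlus.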

Sequence	binding signal
TCAATTAATCATGTGTTAATAACTCACGTCGTTTTACATACGGAGTCACCTAGTGCAG	3440 fluorescence intensity (a.u.)
GACAGTGATTGCGGCAGCGGCAGTCATAGGCGACGATGAGCGGAGTCACCTAGTGCAG	18800 fluorescence intensity (a.u.)
GTTTAATTCACGCTAAAATTGGAACGGTGTGATGGAAAAGCGGAGTCACCTAGTGCAG	5360 fluorescence intensity (a.u.)
TTTGGGCTAGCTCGTTGATTGACACGTCTCCTGAGCATTTCGGAGTCACCTAGTGCAG	22400 fluorescence intensity (a.u.)
ATCGACAGATAATTAAATCGATCATCAAATGATCAATTTCCGGAGTCACCTAGTGCAG	4580 fluorescence intensity (a.u.)
CCTTTAATTGCAGAGTCAAGATGGACATAGTTATTTACACCGGAGTCACCTAGTGCAG	21100 fluorescence intensity (a.u.)
TGATAATTTTGGCCATTCCTAATCTGCAAACAGATCATCTCGGAGTCACCTAGTGCAG	8780 fluorescence intensity (a.u.)
GTTGATAGCTTATTTAATGTTATGGATACCATTCTAGTCACGGAGTCACCTAGTGCAG	18800 fluorescence intensity (a.u.)
GCAAAATTAATCTGTCCGTACGGCTGAATAATCCATTCCCCGGAGTCACCTAGTGCAG	5070 fluorescence intensity (a.u.)
AGGTGATTGGTAAGGAAAATCGCAGACAAATCAACGGTCGCGGAGTCACCTAGTGCAG	47500 fluorescence intensity (a.u.)
GTATAATTAGTCTATGATTAGCCATAAGTACTACAGTAACCGGAGTCACCTAGTGCAG	43600 fluorescence intensity (a.u.)
AATAATTGTTTCTTAGTCTTTGGGTCAAAGGTGGTTGTGCCGGAGTCACCTAGTGCAG	37800 fluorescence intensity (a.u.)
CGTAACTCTATGATTTCTATCATCTTACATCTTGATCACTCGGAGTCACCTAGTGCAG	8490 fluorescence intensity (a.u.)
GATTTAATATGATTAGATTACAATTACAACAGATTAGAGCCGGAGTCACCTAGTGCAG	37500 fluorescence intensity (a.u.)
CTATTAGATTGGTTATAGATTAATTGGAGCTAATAATAGGCGGAGTCACCTAGTGCAG	46300 fluorescence intensity (a.u.)
TCCTCCTCCTCGATTGATTGCCCTCCTCTTCTCCCTCCTCCGGAGTCACCTAGTGCAG	19800 fluorescence intensity (a.u.)
TCTACTAATTGGTCGAACTTTCAATATAGAATTACAAAATCGGAGTCACCTAGTGCAG	4970 fluorescence intensity (a.u.)
AGATATAACAGCCAATCATATTTTCGGCCCTCATCAGTAACGGAGTCACCTAGTGCAG	20200 fluorescence intensity (a.u.)
ATAAATGGGCTATTAGATTGACTATAAATGATTTGGAGCCCGGAGTCACCTAGTGCAG	57100 fluorescence intensity (a.u.)
TCGCAAAAGAAATATAATTAATTCACAATGTAATAGGACGCGGAGTCACCTAGTGCAG	3220 fluorescence intensity (a.u.)
CAGTGACAGAGCAAACCATGATTTGAGAGAAGGAGCATATCGGAGTCACCTAGTGCAG	9960 fluorescence intensity (a.u.)

Sequence	binding signal
CGTCGAAGGTGATTAGCGCGCACGCGTAGTGCCCGGGCCTCGGAGTCACCTAGTGCAG	4320 fluorescence intensity (a.u.)
AGGCACAATCATTGGAATATACGAATATAAGACAAGTGTGCGGAGTCACCTAGTGCAG	11700 fluorescence intensity (a.u.)
GCCAATCTATCAATCCACCCCTTTTAGCTAGTAAATCTATCGGAGTCACCTAGTGCAG	10700 fluorescence intensity (a.u.)
TAATCATAATTTTGTCAGTCCTTTTACATACCGACCTTGACGGAGTCACCTAGTGCAG	5420 fluorescence intensity (a.u.)
ACGAATTAATTAGGCTTAATAAATTCGTCTCGCAGTTTACCGGAGTCACCTAGTGCAG	35100 fluorescence intensity (a.u.)
CTAAAATTGTAGCAATTGACAAAACAATTGCAGTTTTATGCGGAGTCACCTAGTGCAG	11600 fluorescence intensity (a.u.)
TATATTTATTATTTGCAGTTAATTATGTTACAAATAATAACGGAGTCACCTAGTGCAG	4460 fluorescence intensity (a.u.)
GGTTTGCATGATAGACTCGTTACTGTCACAGGACCCTTGGCGGAGTCACCTAGTGCAG	4290 fluorescence intensity (a.u.)
TTTGATAGGGAGGATTGGCTCCAGCATTGTACGAGAACTACGGAGTCACCTAGTGCAG	19900 fluorescence intensity (a.u.)
AGTTCGCTGATCACCCAATCACCATTCGGTCTTCCATTCACGGAGTCACCTAGTGCAG	7150 fluorescence intensity (a.u.)
CATGATTCCATTTCCCCTCTAGTTTCTGTTCTGTTATTTACGGAGTCACCTAGTGCAG	4300 fluorescence intensity (a.u.)
GTCTTAATTAGAGATTTTATCCACCATTATTTCCATGGATCGGAGTCACCTAGTGCAG	40100 fluorescence intensity (a.u.)
CTCTGGTTTGATATCAATTAATCTGTGTCTATGTGTCGCACGGAGTCACCTAGTGCAG	22700 fluorescence intensity (a.u.)
TATCTGCCATTAATCATTGACTTGTACATCTGTCTTGCTACGGAGTCACCTAGTGCAG	4400 fluorescence intensity (a.u.)
AAAATTAAGATTAGTTTGCTCATTTAAAATGACAAGAAACCGGAGTCACCTAGTGCAG	5540 fluorescence intensity (a.u.)
ATTCCTTGATTTGTAACGTTCTTCTTGCATCTATTCTTCACGGAGTCACCTAGTGCAG	14400 fluorescence intensity (a.u.)
GTGATTGTGTGAATACGCGTTAAAGATGATTCCTTTATCGCGGAGTCACCTAGTGCAG	4230 fluorescence intensity (a.u.)
TCCCATTAATTAATTCGCTCCATTCCTGCACAATTAAAGTCGGAGTCACCTAGTGCAG	38200 fluorescence intensity (a.u.)
AAGAAAATAATTGATATAACAAGGAAGCATGGGATAGCTACGGAGTCACCTAGTGCAG	25500 fluorescence intensity (a.u.)
TACATATGTGAACATTAATCAATCTTTGGTACTATACGTACGGAGTCACCTAGTGCAG	3600 fluorescence intensity (a.u.)
ACGGCGTTATTTGATTGGATTGTATTGGATTTAACCTGGACGGAGTCACCTAGTGCAG	31100 fluorescence intensity (a.u.)
